In article PMC12820563, “FoxP3 forms a head-to-head dimer in vivo and stabilizes its multimerization on adjacent microsatellites”:
This is one part of the list.

Biological target: T1, MBP-FoxP1dN (Mus musculus, UniProt P58462 326-579)
T1 sequence: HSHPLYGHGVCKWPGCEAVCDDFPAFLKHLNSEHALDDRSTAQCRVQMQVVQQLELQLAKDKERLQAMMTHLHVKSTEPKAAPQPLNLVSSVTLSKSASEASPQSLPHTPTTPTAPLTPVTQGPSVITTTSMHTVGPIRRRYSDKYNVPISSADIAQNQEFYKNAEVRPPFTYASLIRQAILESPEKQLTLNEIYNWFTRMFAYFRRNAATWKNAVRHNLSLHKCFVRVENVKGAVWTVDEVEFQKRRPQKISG
Assay: PD-seq (MBP pull-down with sequencing); 20 mM Tris-HCl pH 7.5, 100 mM NaCl, 1.5 mM MgCl2, 0.4 uM protein, 0.1 uM dsDNA library, 30 min, room temperature, amylose pull-down; high values mean tight binding
Conditions: protein: recombinant; tags: His6-MBP; chain copies: 2; dsDNA, one strand shown
Outline: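 The N-terminus-lacking fragment of mouse FoxP3 or FoxP1 carried a His6-MBP tag and was expressed in E. coli. At 0.4 µM it was incubated with 0.1 µM Klenow-filled degenerate double-stranded DNA library for 30 min at room temperature in Tris pH 7.5 buffer with NaCl and MgCl2, and complexes were caught on amylose resin, washed three times, released with proteinase K, PCR-barcoded and Illumina-sequenced. Binding is reads-per-million enrichment of pull-down over input with replicates pooled.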

Q: Which binding signal does the source give for “GATGATTGTTCTCCCAGCTGATGAATTCCCACGCTCGAGTAAACAAATTTTCCTAATCTTTCTGTTCAAGCGCCATCTAC” here?
A: 0.836 RPM ratio (pull-down/input)

Q: With “GATGATTGTTCTCCCAGCTGATGAATTAGCTCATTCGAGTAAACAAATTTTCCTAATCTTTCTGTTCAAGCGCCATCTAC” as the sequence, how does the binding signal read?
A: 0.91 RPM ratio (pull-down/input)

Q: Which binding signal does the source give for “GATGATTGTTCTCCCAGCTGATGAATTCGAAGAATCGAGTAAACAAATTTTCCTAATCTTTCTGTTCAAGCGCCATCTAC” here?
A: 0.913 RPM ratio (pull-down/input)

Q: How did the binding signal turn out when “GATGATTGTTCTCCCAGCTGATGAATTCAGGTCCTCGAGTAAACAAATTTTCCTAATCTTTCTGTTCAAGCGCCATCTAC” was run?
A: 0.76 RPM ratio (pull-down/input)

Q: “GATGATTGTTCTCCCAGCTGATGAATTTTATGGTTCGAGTAAACAAATTTTCCTAATCTTTCTGTTCAAGCGCCATCTAC” was tested. Which binding signal did it give?
A: 1.03 RPM ratio (pull-down/input)

Q: Which binding signal does the source give for “GATGATTGTTCTCCCAGCTGATGAATTACCCGGATCGAGTAAACAAATTTTCCTAATCTTTCTGTTCAAGCGCCATCTAC” here?
A: 0.883 RPM ratio (pull-down/input)

Q: Which binding signal does the source give for “GATGATTGTTCTCCCAGCTGATGAATTATATTAGTCGAGTAAACAAATTTTCCTAATCTTTCTGTTCAAGCGCCATCTAC” here?
A: 1.2 RPM ratio (pull-down/input)

Q: For “GATGATTGTTCTCCCAGCTGATGAATTCGATATATCGAGTAAACAAATTTTCCTAATCTTTCTGTTCAAGCGCCATCTAC”, which binding signal is on record?
A: 1.01 RPM ratio (pull-down/input)

Q: Which binding signal does the source give for “GATGATTGTTCTCCCAGCTGATGAATTTCGTATCTCGAGTAAACAAATTTTCCTAATCTTTCTGTTCAAGCGCCATCTAC” here?
A: 0.911 RPM ratio (pull-down/input)

Q: For “GATGATTGTTCTCCCAGCTGATGAATTGAACCTTTCGAGTAAACAAATTTTCCTAATCTTTCTGTTCAAGCGCCATCTAC”, which binding signal is on record?
A: 0.867 RPM ratio (pull-down/input)

Q: With “GATGATTGTTCTCCCAGCTGATGAATTCGCACTGTCGAGTAAACAAATTTTCCTAATCTTTCTGTTCAAGCGCCATCTAC” as the sequence, how does the binding signal read?
A: 0.901 RPM ratio (pull-down/input)

Q: Which binding signal does the source give for “GATGATTGTTCTCCCAGCTGATGAATTGGAGCACTCGAGTAAACAAATTTTCCTAATCTTTCTGTTCAAGCGCCATCTAC” here?
A: 0.843 RPM ratio (pull-down/input)

Q: With “GATGATTGTTCTCCCAGCTGATGAATTTTTAAGATCGAGTAAACAAATTTTCCTAATCTTTCTGTTCAAGCGCCATCTAC” as the sequence, how does the binding signal read?
A: 0.944 RPM ratio (pull-down/input)

Q: For “GATGATTGTTCTCCCAGCTGATGAATTTCCAAAATCGAGTAAACAAATTTTCCTAATCTTTCTGTTCAAGCGCCATCTAC”, which binding signal is on record?
A: 1.05 RPM ratio (pull-down/input)

Q: How did the binding signal turn out when “GATGATTGTTCTCCCAGCTGATGAATTAGCATGTTCGAGTAAACAAATTTTCCTAATCTTTCTGTTCAAGCGCCATCTAC” was run?
A: 0.983 RPM ratio (pull-down/input)

Q: How did the binding signal turn out when “GATGATTGTTCTCCCAGCTGATGAATTATAGGTCTCGAGTAAACAAATTTTCCTAATCTTTCTGTTCAAGCGCCATCTAC” was run?
A: 0.808 RPM ratio (pull-down/input)

Q: “GATGATTGTTCTCCCAGCTGATGAATTATTCACATCGAGTAAACAAATTTTCCTAATCTTTCTGTTCAAGCGCCATCTAC” was tested. Which binding signal did it give?
A: 1.18 RPM ratio (pull-down/input)

Q: With “GATGATTGTTCTCCCAGCTGATGAATTGCGAGGATCGAGTAAACAAATTTTCCTAATCTTTCTGTTCAAGCGCCATCTAC” as the sequence, how does the binding signal read?
A: 1.01 RPM ratio (pull-down/input)

Q: With “GATGATTGTTCTCCCAGCTGATGAATTTCGACATTCGAGTAAACAAATTTTCCTAATCTTTCTGTTCAAGCGCCATCTAC” as the sequence, how does the binding signal read?
A: 0.919 RPM ratio (pull-down/input)

Q: “GATGATTGTTCTCCCAGCTGATGAATTATTTTAATCGAGTAAACAAATTTTCCTAATCTTTCTGTTCAAGCGCCATCTAC” was tested. Which binding signal did it give?
A: 1.28 RPM ratio (pull-down/input)

Q: How did the binding signal turn out when “GATGATTGTTCTCCCAGCTGATGAATTGTCGGCGTCGAGTAAACAAATTTTCCTAATCTTTCTGTTCAAGCGCCATCTAC” was run?
A: 0.938 RPM ratio (pull-down/input)

Q: How did the binding signal turn out when “GATGATTGTTCTCCCAGCTGATGAATTTCCCCCCTCGAGTAAACAAATTTTCCTAATCTTTCTGTTCAAGCGCCATCTAC” was run?
A: 0.758 RPM ratio (pull-down/input)

Q: For “GATGATTGTTCTCCCAGCTGATGAATTCTACTAGTCGAGTAAACAAATTTTCCTAATCTTTCTGTTCAAGCGCCATCTAC”, which binding signal is on record?
A: 0.87 RPM ratio (pull-down/input)

Q: Which binding signal does the source give for “GATGATTGTTCTCCCAGCTGATGAATTGCTGCTGTCGAGTAAACAAATTTTCCTAATCTTTCTGTTCAAGCGCCATCTAC” here?
A: 1.29 RPM ratio (pull-down/input)

Q: “GATGATTGTTCTCCCAGCTGATGAATTCCTCGCTTCGAGTAAACAAATTTTCCTAATCTTTCTGTTCAAGCGCCATCTAC” was tested. Which binding signal did it give?
A: 0.888 RPM ratio (pull-down/input)

Q: For “GATGATTGTTCTCCCAGCTGATGAATTTGTATATTCGAGTAAACAAATTTTCCTAATCTTTCTGTTCAAGCGCCATCTAC”, which binding signal is on record?
A: 1.71 RPM ratio (pull-down/input)

Q: With “GATGATTGTTCTCCCAGCTGATGAATTTGGGAACTCGAGTAAACAAATTTTCCTAATCTTTCTGTTCAAGCGCCATCTAC” as the sequence, how does the binding signal read?
A: 0.858 RPM ratio (pull-down/input)

Q: Which binding signal does the source give for “GATGATTGTTCTCCCAGCTGATGAATTCAACCAGTCGAGTAAACAAATTTTCCTAATCTTTCTGTTCAAGCGCCATCTAC” here?
A: 0.965 RPM ratio (pull-down/input)

Q: “GATGATTGTTCTCCCAGCTGATGAATTCTTGGACTCGAGTAAACAAATTTTCCTAATCTTTCTGTTCAAGCGCCATCTAC” was tested. Which binding signal did it give?
A: 0.824 RPM ratio (pull-down/input)

Q: For “GATGATTGTTCTCCCAGCTGATGAATTTCTAACTTCGAGTAAACAAATTTTCCTAATCTTTCTGTTCAAGCGCCATCTAC”, which binding signal is on record?
A: 0.867 RPM ratio (pull-down/input)

Q: For “GATGATTGTTCTCCCAGCTGATGAATTCAGTACCTCGAGTAAACAAATTTTCCTAATCTTTCTGTTCAAGCGCCATCTAC”, which binding signal is on record?
A: 0.838 RPM ratio (pull-down/input)

Q: Which binding signal does the source give for “GATGATTGTTCTCCCAGCTGATGAATTATGCCGTTCGAGTAAACAAATTTTCCTAATCTTTCTGTTCAAGCGCCATCTAC” here?
A: 1.03 RPM ratio (pull-down/input)
